# In PubChem BioAssay (NCI):
# Some structures have more than one record in an assay (separate samples or runs), and their calls can disagree.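 Results are percent growth after 48 hours of single-concentration exposure. 100 means growth as in untreated cells, lower positive values show inhibition; negative values down to -100 show cell death.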 For part of its entries the source gives two or more results. This list holds those alone. The calls were made as follows: active = growth percent below 10; inactive = the rest. The source may hold further records. This drug was run again and again over the years, at its own concentration, as given; one value stands for one run. Additions like (4×) count equal records among those shown.
# System: A498 renal
# Test: NCI-60 one-dose screen, 48 h (100 = growth as untreated, 0 = no growth, -100 = all killed)
smiles,measurement,setting,value
COc1cccc2c1C(=O)c1c(O)c3c(c(O)c1C2=O)C[C@@](O)(C(=O)CO)C[C@@H]3OC1CC(N)C(O)C(C)O1 (stereo not given in full),growth,"0.25 µM, runs of 2012","inactive: 54.3, 22.6, 51.1, 50.7, 28.4, 25.4, 46.2 (2×), 53.7, 38.3, 45.1, 46, 60.8, 45.6, 12.2, 15.7, 15, 30.7, 25.8, 17.2, 20.9, 23.9 (2×), 39.4, 38.1, 49.9, 47.4, 45.7, 52.3, 60.9, 49.4 (2×), 42.2, 63.6, 61.5, 52.5 (2×), 51.2, 44.4, 39.8, 40.4, 49.1 (2×), 45.4, 48.5, 53.8, 38.5, 42.6, 59.9 (2×), 57.7, 58.4, 65.1, 59.7, 59.3, 78.4, 59.6, 67.4, 61.8, 70.8, 31.5, 52.4, 47.9, 46.3, 44.8, 48.7, 53.6, 32.8, 27.1, 42.5, 49.3, 33, 10%"
same,growth,"0.25 µM, runs of 2013","inactive: 34.8, 42.5, 45.3, 51.2, 26.3, 14.9, 55.4, 56.3, 56.1, 58.7, 45.2, 47.4, 23.9, 47.2 (2×), 49.8, 44, 41.5 (2×), 26.8, 46.7, 44.3 (3×), 61.5, 56, 48, 50.5, 42.3, 45.4 (2×), 50.2, 43.3, 46.4, 46.6, 53, 46, 45.5 (2×), 47.8, 57.5, 54.3, 45.8, 43, 49.1, 40, 42.9, 40.9, 51.1, 38.5, 33.4, 49.3, 49.6, 50.7, 44.5, 55.7, 50.4, 34.2, 22.8 (2×), 19.3, 14.6, 32.5, 28.6, 16.1, 28.9, 22.4, 30.9, 23.6, 19.4, 39.2, 35.1, 34.9, 19.7, 27.2, 20.6, 37.5, 12.5, 34.6% and active: 7.66%"
same,growth,"0.25 µM, runs of 2014","inactive: 14.5, 41, 36.7, 43.2, 47.9, 41.1 (2×), 33.7, 40.5 (2×), 36.8, 46.3, 40.7, 44.5, 42, 40.8, 21, 26.1, 28, 26.9, 16.3, 26.4, 40.1, 34.1, 32.9, 36.1, 45.2, 48.2, 39.7, 41.2 (2×), 40.3, 43.4, 38.7, 48.3, 43, 37.8, 39.6, 45.5 (2×), 41.6, 37.5, 44.4, 48.4, 38.8, 39.4, 49.9, 40.9, 44.1, 65.2, 52.7, 66, 51.3, 40.6, 41.9, 64.5, 50.2 (2×), 51.7, 53.7 (2×), 47.3, 52.1, 42.9, 39.8, 40.4, 44.7, 56.5, 51.6, 53.8, 54.2, 35.7, 37.3, 63.9, 76.7, 56.9, 77.8% and active: 8.9%, 2.52%, -4.4%"
same,growth,"0.25 µM, runs of 2015","inactive: 66.7, 55.3, 44.2, 46.3, 36.5 (2×), 34.9 (2×), 37.7, 43.8, 35.1, 20.4, 19.5, 48.5, 57.4 (2×), 53.7, 42.2 (2×), 43.2, 47.8 (2×), 11.8, 24.2 (2×), 35.6, 39.7, 53.1 (2×), 56, 51.1, 47.7 (2×), 31.8, 38.8, 22, 27.7, 33, 26.5, 38.6, 41.6, 36.1, 30.8, 51.2, 26.4, 48.2, 43.5, 32.2, 61.1, 38.1, 44.4, 32.4, 44.5, 34.5, 59.6, 54.5, 56.3, 57.2, 61.7, 47.4, 45.9, 40, 38.9, 45.4, 47.5, 26.1, 36, 25.2, 40.8, 50.5, 48.8, 28, 39.9, 55.8, 59.1, 52.6, 58.3, 55.4% and active: 4.87%, 7.81%, 3.51%"
same,growth,"0.25 µM, runs of 2016","inactive: 50.9 (2×), 51.8, 53.5, 62.1, 58.9 (2×), 56.6 (2×), 39.4, 31.4, 33.6, 33.3, 29.1, 24.1, 53.3, 48.6, 36.3, 34.1, 53, 58.1, 25.5, 26, 59, 55.8, 44.7 (2×), 43.1, 55.9 (2×), 52, 54.8, 58.8 (2×), 40, 45.1, 34.7, 26.8, 59.1, 57.6, 42.3, 42.2, 47.7, 46.8, 44.9, 49.3, 49.2, 44.4, 51, 44.5 (2×), 59.7 (2×), 54.2, 46.3, 46, 55.1, 48.5, 65.3, 61.6, 57.1, 57.9, 58.7, 72.6, 62.3, 71.9, 63.7, 58.6, 62.5 (2×), 57.3, 60, 52.1, 45.7, 69.2, 60.5, 47.4, 57.7, 61.2, 68.5, 72.5, 61.5, 63.4, 67, 67.4, 69.9%"
same,growth,"0.25 µM, runs of 2017","inactive: 69.5, 63.6 (2×), 54.8 (2×), 58.1 (2×), 56.8, 47.4, 54.4, 43, 41.7, 40.5, 52.4 (3×), 47.3, 41.6, 52.1 (3×), 49, 49.8, 51.8, 47.1, 45.8, 58.8, 47.8 (2×), 49.2, 50.4, 46.9, 60.9, 53.3, 44.9, 42.6, 43.1, 54.2, 57.6, 40.4, 46 (2×), 51.5 (4×), 46.8, 59, 53.2, 56.1, 54.3, 53.9, 62.6, 65.1, 52.2, 44.8, 56.9, 43.7, 47.9 (2×), 48.6, 48.9, 49.3, 53.5, 47.5, 51.1, 62.7, 45.4, 41.3, 55, 55.8, 50.5, 67.6, 50, 50.7, 45.2, 47.7, 25.8, 32.5%"
same,growth,"0.25 µM, runs of 2018","inactive: 47.6, 44.8, 34.8, 31, 43.9, 41.6, 42.9, 45.2, 54.5 (2×), 45.1, 50.9, 43.3, 56.3 (2×), 40.8, 46.9, 51.8, 54.3, 46.8, 38.3 (2×), 29.3, 33, 42, 48.2, 39.3, 40.3, 30.4, 13.3, 30.9, 36.8, 60.6, 60.7, 31.3, 34.1, 32.2, 31.2, 38.1, 35.6 (2×), 37.4, 52, 42.8, 43.5, 40.5, 40.9, 38.9, 44.3, 35.5, 15.1, 22.9, 35.1, 10.2% and active: 4.33%"
same,growth,"0.25 µM, runs of 2019","inactive: 13.3, 22.8, 27, 10.2, 39, 18.6, 18.1 (2×), 21.4, 25.3, 30.8 (3×), 11.2, 38.9, 43.1, 46.4, 28.9, 33.9, 10.8, 83.4, 15.7, 24.6, 23.3, 25.9, 23.7, 24.3, 35.8, 40.9, 40.8, 26.7, 25.5, 39.5, 32.5, 45.8, 45.7% and active: -10.7, 5.99, -0.171, -3.4, 5.56%"
same,growth,"0.25 µM, runs of 2020","inactive: 18.2, 32.6, 36.3, 35.5, 22.1, 24.1, 21.8, 38.4, 41.2, 35.9, 27.9, 33.8, 29.1, 48.1, 32.4, 38.7, 37.5, 50, 46, 54.4, 23% and active: 9.76%, 9.08%, 4.32%"
same,growth,"0.25 µM, runs of 2021","inactive: 33, 47.8, 31.3, 37.5, 42.8, 52.5, 31.4, 34.3, 39.1, 42.1, 35.2, 33.8, 40.6, 33.3, 32.8, 37.3, 46.3, 35.3, 22.1, 21.5, 33.6, 29.5, 40.9, 19.2, 20, 26.2, 31, 20.8 (2×), 22.9 (2×), 23.5, 20.6, 15.9, 16.5, 18, 74.8, 31.8, 35.5, 63.7, 38.8, 32.5, 75.1, 75.2, 59.4, 71.5, 63.4, 71.7, 67, 62.6, 69.4%"
same,growth,"0.25 µM, runs of 2022","inactive: 52.4, 53.6, 63.6, 79.3, 55.6, 60.3, 81.5, 86.7, 65.2, 67.8, 75, 59.6, 67.7 (2×), 81.4, 66.3, 54.6, 77.2, 83.2, 55.3, 79.7, 80.8, 71.8, 80.3, 69.6% and active: 7.64%"
same,growth,"25 µM, runs of 1991","active: -64.6, -82.7, -82.1, -95.8, -87.5, -91.6, -57.8, -62.7, -71.7, -83.9, -77.1, -54.2, -44.2, -72.9, -81.4, -38.7, -47.2, -72.6%"
same,growth,"25 µM, runs of 1992","active: -90.5, -53.1, -65.3, -61.5, -14.8, -80.1, -72.1 (2×), -81.6 (2×), -90.2, -62.3, -54.4, -61.3, -69.4 (2×), -77, -80.4 (2×), -85.7, -80.3, -81.3, -63.7, -67.5, -86.4, -78.4, -51.2, -23.8, -45, -79.3, -62.8, -87.2, -69.5, -78.7, -77.3, -88.9, -90.6, -73.1, -83.7, -35.7, -74.2, -67.8, -74.3, -68.8, -63.6, -65, -82.2, -50.8, -66.9, -84.3, -52.8, -62.6 (2×), -52.3, -63.3, -74.8 (2×), -68.9, -87.6 (2×), -84, -57.4, -81.5, -72.9, -78.2, -43.8, -56, -47, -47.1, -84.2 (2×), -85.6, -82.1, -74.6, -69.2, -77.2, -63, -80.2, -79.4, -86.5, -83.6, -89.6, -82.6 (2×), -72.5, -77.6 (2×), -86, -87.5, -75.9, -70.1, -83.3, -69.1, -80.6, -73.5, -77.9, -65.2, -10.2, -55.5, -79.7%"
same,growth,"25 µM, runs of 1993","active: -52.6, -70.1, -65.8 (2×), -38.4, -63.9, -89.3, -76.9, -60.4, -72.3, -74.1, -64.8, -11.7, -60.7, -31.9, -55.3, -67.9, -52.1, -58.6, -76.6, -60.8, -69.1, -83.1, -68.1, -91 (2×), -54.9, -70.7, -86.4, -92.7, -83.5, -41.7, -87.2, -81.3%"
same,growth,"25 µM, runs of 1994","active: -54.1, -94.2, -80.5, -80, -87.8, -57.6, -92.2, -83.9, -87.5, -69.3, -84, -44.8, -49.7, -86.9, -76.5, -82.7, -86.2, -74.7, -45.5, -69.1, -72.3, -45.4, -36.5, -22.7, -25.7, -73.6% and inactive: 63.2%"
